Out of some 310,000 compounds screened, about 2,200 (0.71%) showed an effect of 50% or more. The effect is printed as a negative number. This is one part of the list.
target: human ether-à-go-go-related gene (hERG) potassium channel (human, UniProt Q12809); assay: primary screen, population patch clamp on CHO cells stably expressing hERG
Sequence (Q12809 whole entry, looked up): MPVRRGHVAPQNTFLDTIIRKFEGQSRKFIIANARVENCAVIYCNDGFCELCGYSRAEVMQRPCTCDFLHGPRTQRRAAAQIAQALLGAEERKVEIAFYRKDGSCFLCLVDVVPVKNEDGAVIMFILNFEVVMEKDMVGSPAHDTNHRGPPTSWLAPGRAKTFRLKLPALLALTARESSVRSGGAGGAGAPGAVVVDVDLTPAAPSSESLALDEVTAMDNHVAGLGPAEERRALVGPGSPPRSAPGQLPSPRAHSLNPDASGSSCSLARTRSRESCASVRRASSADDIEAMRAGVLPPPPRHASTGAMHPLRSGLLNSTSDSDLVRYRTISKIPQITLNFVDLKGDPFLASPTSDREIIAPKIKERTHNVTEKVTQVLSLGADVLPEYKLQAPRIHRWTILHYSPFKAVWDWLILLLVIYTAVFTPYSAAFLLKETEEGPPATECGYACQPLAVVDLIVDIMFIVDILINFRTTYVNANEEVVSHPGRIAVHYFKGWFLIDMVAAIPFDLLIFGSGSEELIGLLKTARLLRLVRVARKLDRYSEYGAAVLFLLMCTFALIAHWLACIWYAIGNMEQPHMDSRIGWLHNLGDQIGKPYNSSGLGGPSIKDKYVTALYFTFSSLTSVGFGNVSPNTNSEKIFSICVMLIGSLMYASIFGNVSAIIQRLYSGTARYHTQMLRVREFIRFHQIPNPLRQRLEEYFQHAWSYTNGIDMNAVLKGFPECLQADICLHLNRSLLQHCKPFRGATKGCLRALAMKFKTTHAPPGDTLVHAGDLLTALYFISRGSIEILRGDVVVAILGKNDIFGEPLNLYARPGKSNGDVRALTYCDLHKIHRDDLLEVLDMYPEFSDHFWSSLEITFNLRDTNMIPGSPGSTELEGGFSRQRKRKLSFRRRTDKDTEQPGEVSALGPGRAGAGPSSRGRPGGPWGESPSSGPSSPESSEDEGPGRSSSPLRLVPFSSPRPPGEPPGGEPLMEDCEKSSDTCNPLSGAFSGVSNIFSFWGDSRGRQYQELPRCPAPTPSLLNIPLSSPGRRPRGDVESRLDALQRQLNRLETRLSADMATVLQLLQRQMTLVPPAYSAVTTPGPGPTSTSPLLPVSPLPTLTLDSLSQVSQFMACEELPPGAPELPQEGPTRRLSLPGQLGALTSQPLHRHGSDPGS

| Compound | hERG current change (%, negative = inhibition) at 1uM [%] |
| --- | --- |
| CCn1c(CN2CCN(C(=O)c3ccco3)CC2)nc2c1c(=O)n(C)c(=O)n2C | 1.44 |
| O=C(Nc1ccccn1)c1ccc(S(=O)(=O)N2CCCCCC2)cc1 | 5.88 |
| CCOc1ccc(NS(=O)(=O)c2ccc3c(c2)N(C(C)=O)CCS3)cc1 | 6.56 |
| O=C(Nc1ccc2c(c1)OCCO2)c1ccc(S(=O)(=O)N2CCCCC2)cc1 | 8.18 |
| O=C(NCc1ccc(Cl)cc1)c1cnn2ccccc12 | 6.45 |
| O=C(Nc1cccnc1)c1ccccc1-c1ccccc1 | 13.4 |
| CCCC(C)NCC(=O)Nc1ccccc1-c1ccccc1.O=C(O)C(=O)O (stereo not shown) | -2.49 |
| NC(=O)NOCc1ccc(Cl)cc1Cl | 11.4 |
| CCC(CC)c1nnc(NC(=O)Cc2cccs2)s1 | 11.6 |
| Cc1c(C(=O)Nc2ccccc2)sc2nc3n(c(=O)c12)CCCCC3 | 7.59 |
| COCCCn1c(C(=O)NCCN2CCOCC2)cc2c(=O)n3cccc(C)c3nc21 | 6.14 |
| O=C(Nc1nnc(-c2ccccc2)s1)c1ccc(F)cc1 | 7.26 |
| O=[N+]([O-])c1cc([N+](=O)[O-])c(Oc2c(F)cc(F)cc2F)cc1NN1CCCCC1 | 11.1 |
| CCOC(=O)C1CCN(S(=O)(=O)c2cn(C)cn2)CC1 | 16.5 |
| Cc1ccc(C(c2nnnn2Cc2ccccc2)N2CCN(Cc3ccccc3)CC2)cc1 (stereo not shown) | -4.31 |
| O=C(CN(Cc1ccc(F)cc1)C(=O)CCC(=O)Nc1nccs1)NCc1ccc(F)cc1 | 3.16 |
| Cc1ccc(NC(=S)NC2CCSc3ccccc32)cc1C (stereo not shown) | 15.3 |
| O=C(NC1(C(=O)NC2CCCCC2)CCCCC1)c1ccccn1 | 5.52 |
| COc1cc(/C=C/C(=O)c2ccc(O)cc2)ccc1OCC#N | 3.72 |
| Cn1cc(Cl)c(-c2n[nH]c(=S)n2-c2ccccc2)n1 | 14 |

| Compound | hERG current change (%, negative = inhibition) at 1uM [%] |
| --- | --- |
| N/C(=N\OC(=O)Oc1ccccc1)c1ccc(Cl)cc1 | 10.6 |
| O=C(CSCc1ccc(F)cc1)NCc1ccc2c(c1)OCO2 | 3.43 |
| O=C(c1ccc2c(c1)OCO2)N1CCN(c2ccc(F)cc2)CC1 | -6.94 |
| COc1ccc(CNCCC(c2ccccc2)c2ccc(OC(C)C)cc2)cc1OC (stereo not shown) | -17.5 |
| COc1ccc2c(c1)C(C)CC(C)(C)N2C(=O)Nc1ccccc1 (stereo not shown) | 14.8 |
| CC(=O)Nc1cccc(OCC(=O)Nc2sccc2C(N)=O)c1 | 11.5 |
| COC(=O)[C@@H]1C[C@@]2(O)[C@H](O)[C@H](O)[C@H](O)C[C@H]2N1CC(c1ccccc1)c1ccccc1 | 12.9 |
| Cc1cccc(N=Nc2c(O)[nH]c3ccc(Br)cc23)c1 | 11.4 |
| CCc1cc(C(=O)COc2ccccc2F)c(O)cc1O | 8.58 |
| O=C1COc2ccc(S(=O)(=O)N3CCCCC3)cc2N1 | 16.9 |
| Cc1cc(C)cc(NC(=O)CCCCCN2C(=O)[C@@H]3Cc4ccccc4CN3C2=O)c1 | -1.5 |
| CCn1nc(NC(=O)c2ccco2)c2cc3ccccc3nc21 | 9.82 |
| CC1CCN(CCCNC(=O)c2ccc(CS(=O)(=O)Cc3ccc(Cl)cc3)o2)CC1 | 9.6 |
| CCN1C(=O)CCCc2ccccc21 | 15.1 |
| NC(N)=N/N=C/c1ccc(OCc2ccccc2)c(OCc2ccccc2)c1 | 2.55 |
| CCCCCNC(=O)CCCCn1c(=O)[nH]c2cc(OCC)c(OCC)cc2c1=O | 7.57 |
| O=C(COC(=O)c1ccccc1-c1nc2ccccc2s1)NC1CCS(=O)(=O)C1 (stereo not shown) | 5.07 |
| C=C(C)c1cccc(C(C)(C)NC(=O)Nc2cc(C)ccn2)c1 | 9.77 |
| O=c1c2ccccc2ncn1-c1ccc(Cl)cc1 | 14.1 |
| COCCCn1c(SCC(=O)O)nc2cc(OC)c(OC)cc2c1=N | 11.6 |

| Compound | hERG current change (%, negative = inhibition) at 1uM [%] |
| --- | --- |
| O=C(COc1ccc(Cl)cc1Br)NC1CC1 | 10.5 |
| CN(C)/C=C1/C(=O)Nc2ccccc21 | -0.29 |
| O=C1NCCN1CCN1C(=O)c2ccccc2NC1c1ccccc1 (stereo not shown) | -6.13 |
| Cc1ccc(OCC(=O)NC(=S)Nc2cccc(NC(=O)c3ccccc3)c2)cc1 | 6.01 |
| CC(O)C(=O)NCCOCCOCCNC(=O)C(C)O (stereo not shown) | 14.6 |
| CCOC(=O)N1CCN(C(=O)CNC(=O)c2ccc(Cl)cc2)CC1 | 11.4 |
| O=C(Cn1c(=O)oc2ccccc21)N1CCCCC1 | 12 |
| COC(=O)c1ccc(C2C(C(=O)Nc3ccccc3C)=C(C)Nc3ncnn32)cc1 (stereo not shown) | 12.5 |
| COc1cc(NS(=O)(=O)c2ccc(NC(=O)COc3ccc(C)cc3)cc2)nc(OC)n1 | 5.67 |
| CCOC(=O)c1c(-c2ccccc2)oc2ccc(OCC(=O)NN)cc12 | 11.4 |
| COc1cccc(-c2nnc(SCN3C(=O)c4ccccc4C3=O)n2C)c1 | 4.94 |
| CCCc1cc(C(=O)Nc2ccc(CC)cc2)no1 | 9.13 |
| O=C(NCc1ccc(Cl)cc1)C1C2C=CC3(CN(Cc4cccnc4)C(=O)C13)O2 (stereo not shown) | 10.6 |
| Cc1ccc(-c2nc(CS(=O)(=O)CC(=O)NCCCN3CCOCC3)c(C)o2)cc1 | 9.19 |
| COc1ccccc1NS(=O)(=O)c1cccc(NC(=O)C2CC2)c1 | -0.73 |
| COc1ccccc1NC(=O)Nc1ccc(F)c(F)c1 | 9.79 |
| COc1ccc(CC(=O)Nc2cc(=O)n(C)c(=O)n2C)cc1 | 9.79 |
| CCOC(=O)/C(=N\Nc1ccc(C(C)=O)cc1)c1csc(Nc2ccccc2)n1 | 10.1 |
